Measurements reported in PubChem BioAssay AID1460 (National Center for Advancing Translational Sciences (NCATS), 2008).
About 5,800 (2.1%) of roughly 270,000 compounds were called active. Inconclusive means that the source gave no clear call. Such entries were picked first, then a sample of the others. Calls come from the whole dose curve; as a rule, active = well fitted inhibition curve with a large enough effect; inconclusive = small, poorly fitted or top-dose-only effect; inactive = flat fitted curve, though single readings scatter. Where the call is inconclusive, the potency comes from a doubtful curve fit.

What follows are molecules tested against Microtubule-associated protein tau (Homo sapiens) (UniProt P10636) (assay: qHTS for Inhibitors of Tau Fibril Formation, Thioflavin T Binding). Conditions: recombinant tau K18 P301L (four-repeat tau fragment), heparin-induced fibrillization, ThT fluorescence; series mostly up to 57.4 µM; activity, negative = inhibition: at the top concentration.
Summary of the method: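 Heparin-induced (20 uM) aggregation of recombinant human K18 P301L tau, 15 uM unlabeled with 0.24 uM labeled, pH 7 acetate buffer, 6 hr at 37 C with compound. Fibrils quantified by 30 uM ThT fluorescence after 1 hr ambient incubation.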
% is set by controls: 0 for no effect and ±100 for the full control effect; potency is the fitted concentration of half-maximal effect; tags give direction and shape of the fitted curve.
Note: nearly all actives have a fitted effect of over 55% in size.

UniProt P10636, sequence (P10636 whole entry, looked up, the tested form may be a part): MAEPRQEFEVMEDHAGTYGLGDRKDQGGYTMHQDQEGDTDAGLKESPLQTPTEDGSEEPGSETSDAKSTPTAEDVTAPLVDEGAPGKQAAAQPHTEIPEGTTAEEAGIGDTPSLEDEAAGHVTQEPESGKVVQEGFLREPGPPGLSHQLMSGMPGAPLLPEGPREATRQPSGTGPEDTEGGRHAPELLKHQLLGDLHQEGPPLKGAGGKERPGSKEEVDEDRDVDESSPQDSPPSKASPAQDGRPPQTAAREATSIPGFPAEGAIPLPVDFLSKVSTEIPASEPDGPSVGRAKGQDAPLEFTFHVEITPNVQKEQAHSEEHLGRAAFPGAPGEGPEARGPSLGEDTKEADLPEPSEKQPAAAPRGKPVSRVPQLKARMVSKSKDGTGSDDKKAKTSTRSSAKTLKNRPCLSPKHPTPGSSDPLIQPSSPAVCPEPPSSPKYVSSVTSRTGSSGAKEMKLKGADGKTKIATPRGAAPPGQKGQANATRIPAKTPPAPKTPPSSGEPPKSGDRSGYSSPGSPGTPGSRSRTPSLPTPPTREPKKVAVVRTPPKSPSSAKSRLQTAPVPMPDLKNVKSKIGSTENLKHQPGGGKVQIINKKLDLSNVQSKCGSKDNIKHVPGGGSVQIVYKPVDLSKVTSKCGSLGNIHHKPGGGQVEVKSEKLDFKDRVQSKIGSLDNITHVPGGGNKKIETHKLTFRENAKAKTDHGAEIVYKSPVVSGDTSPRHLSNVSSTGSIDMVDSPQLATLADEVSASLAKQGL

| SMILES | Potency | activity, negative = inhibition |
| --- | --- | --- |
| Cc1cccc(-c2c3c(=O)n(C)c(=O)n(C)c3cn2-c2cc(N)c(Cl)cc2Cl)c1 | inconclusive: 28.2 µM [inhibitor, partial curve, poor fit] |  |
| CC(=O)NC1C(OC2OC(CC(O)C3OC([N+]4=CCC(=O)NC4=O)C(O)C3O)C(O)C(O)C2NC(=O)/C=C/CCCCCCCCC(C)C)OC(CO)C(O)C1O (stereo unspecified) | inconclusive: 35.5 µM [inhibitor, single point] |  |
| COc1cccc(/C=C/C(=O)Nc2ccc3c(c2)OCCO3)c1OC | inconclusive: 14.1 µM [inhibitor, partial curve] |  |
| O=C(Nc1ccc(N2CCCC2)cc1)c1ccc(Br)o1 | active: 8.91 µM |  |
| CCOC(=O)c1c(-c2ccccc2)csc1NC(=O)c1nc(S(=O)(=O)CC)ncc1Cl | active: 12.6 µM |  |
| Cc1c(C(=O)NCCSCc2ccccc2)cccc1[N+](=O)[O-] |  | inactive: -10.3% |
| COc1ccccc1Cn1ccn(Cc2c(F)cccc2Cl)c(=O)c1=O |  | inactive: -1.31% |
| CCc1[nH]c(=O)[nH]c1C(C)S(=O)(=O)c1ccc(C)cc1 (stereo unspecified) | inconclusive: 14.1 µM [inhibitor, partial curve] |  |
| Cc1oc(-c2cccc3ccccc23)nc1CN1CCN(c2ncnc3ccccc23)CC1 | inconclusive: 8.91 µM [inhibitor, partial curve] |  |
| COC(=O)c1ccc(NC(=O)CSc2ccccn2)cc1 | inconclusive: 5.62 µM [inhibitor, full curve] |  |
| COc1ccccc1/C=C/C(=O)c1ccc(Cl)cc1 | inconclusive: 15.8 µM [inhibitor, partial curve] |  |
| CCc1ccc(-c2cc(C(=O)Nc3c(C)n(C)n(-c4ccccc4)c3=O)c3ccccc3n2)s1 | inconclusive: 22.4 µM [inhibitor, partial curve] |  |
| CC(C)NCCCOc1ccc(C(C)(C)c2ccccc2)cc1 |  | inactive: -12% |
| CCN(CC)C(=O)c1sc(NC(=O)C(C)Sc2nc(-c3ccccc3)cc(C(F)(F)F)n2)c(C(=O)OC)c1C (stereo unspecified) | active: 25.1 µM |  |
| NC(=O)c1ccc(NC(=O)COC(=O)c2ccc3c(c2)OCCO3)cc1 |  | inactive: -13.3% |
| CCC(=O)Nc1ccc(S(=O)(=O)NCc2ccc3c(c2)CCN3C(=O)c2ccc(C)cc2)cc1 |  | inactive: -6.52% |
| COC(=O)c1ccc(/C=C2\N=C(SC)SC2=O)cc1 | inconclusive: 17.8 µM [inhibitor, partial curve] |  |
| CC1(C)CC(=O)C(C(c2ccc(F)cc2)C2C(=O)CC(C)(C)CC2=O)C(=O)C1 |  | inactive: -16.3% |

| SMILES | Potency | activity, negative = inhibition |
| --- | --- | --- |
| Cc1noc(/C=C/N(C)C)c1S(=O)(=O)N1CCCC(C(=O)Nc2ccc(F)cc2F)C1 (stereo unspecified) | inconclusive: 28.2 µM [inhibitor, single point] |  |
| COc1ccc(NC(=O)Nc2sc3nc4n(c(=O)c3c2C)CCC(C)CC4)cc1OC (stereo unspecified) | inconclusive: 2.82 µM [inhibitor, full curve, poor fit] |  |
| COc1ccc(NC(C)C(=O)N/N=C/c2ccccc2OCc2cccc(Br)c2)cc1 (stereo unspecified) | inconclusive: 12.6 µM [inhibitor, single point] |  |
| CN(C(=O)CSc1nc2c(c(=O)[nH]1)CCCC2)C1CCCCC1 |  | inactive: -4.37% |
| CC1(C)OCC([C@H](O)C2=CCCCC2=O)CO1 | inconclusive: 7.94 µM [inhibitor, single point] |  |
| O=C(CSc1nnc(-c2cccnc2)s1)Nc1ccnc2ccccc12 | inconclusive: 0.562 µM [inhibitor, full curve] |  |
| COc1cccc(/C=N/NC(=O)c2cc3c(OC)cccc3[nH]2)c1O | inconclusive: 1.78 µM [inhibitor, full curve] |  |
| Cc1cc(C2C(C#N)=C(N)Oc3n[nH]c(C)c32)c(C)s1 (stereo unspecified) | inconclusive: 28.2 µM [inhibitor, single point] |  |
| CCOCCCNC(=O)c1cc2c(-c3ccc(OC)c(OC)c3)nn(C)c2s1 | inconclusive: 11.2 µM [inhibitor, partial curve] |  |
| COc1ccc(-n2c(Cc3cccn3C)nnc2SCC(=O)Nc2ccccc2C)cc1 |  | inactive: -3% |
| N=C1C(c2ccccc2)=C(O)CN1c1ccc2c(c1)OCO2 |  | inactive: -5.37% |
| O=C(O)c1cc(-c2ccc(/C=C3\NC(=O)N(c4ccc(Cl)cc4)C3=O)o2)ccc1Cl | inconclusive: 28.2 µM [inhibitor, partial curve] |  |
| CCOC(=O)CN1C(=O)N[C@@H](c2ccc(Br)cc2)C(C(=O)OC)=C1C | inactive |  |
| CC(C)(Oc1ccc(Cl)cc1)C(=O)O | inconclusive: 44.7 µM [inhibitor, partial curve] |  |
| Cc1ccc(CNS(=O)(=O)c2cc(C(=O)Nc3cccc(C(F)(F)F)c3)ccc2F)cc1 |  | inactive: 21.5% |
| COc1ccc(CNc2cc([N+](=O)[O-])ccc2OC)cc1 | inconclusive: 12.6 µM [inhibitor, partial curve] |  |
| COc1ccc(C(=O)OC2CCN(c3ncc(C(F)(F)F)cc3Cl)CC2)cc1 | inconclusive: 17.8 µM [inhibitor, partial curve] |  |
| COc1ccc(C(=O)NNC2=C(C(=O)C(F)(F)F)CCC2)cc1 | inconclusive: 25.1 µM [inhibitor, partial curve, poor fit] |  |
